Results reported in article PMC4336329 (PLoS ONE, 2015).
In all, about 310,000 compounds went through this assay and about 2,200 (0.71%) showed an effect of 50% or more. Effects have a minus sign here. Some of the results follow.

Biological target: human ether-à-go-go-related gene (hERG) potassium channel (human, UniProt Q12809)
Assay: primary screen, population patch clamp on CHO cells stably expressing hERG

human ether-à-go-go-related gene (hERG) potassium channel, sequence (Q12809 whole entry, looked up): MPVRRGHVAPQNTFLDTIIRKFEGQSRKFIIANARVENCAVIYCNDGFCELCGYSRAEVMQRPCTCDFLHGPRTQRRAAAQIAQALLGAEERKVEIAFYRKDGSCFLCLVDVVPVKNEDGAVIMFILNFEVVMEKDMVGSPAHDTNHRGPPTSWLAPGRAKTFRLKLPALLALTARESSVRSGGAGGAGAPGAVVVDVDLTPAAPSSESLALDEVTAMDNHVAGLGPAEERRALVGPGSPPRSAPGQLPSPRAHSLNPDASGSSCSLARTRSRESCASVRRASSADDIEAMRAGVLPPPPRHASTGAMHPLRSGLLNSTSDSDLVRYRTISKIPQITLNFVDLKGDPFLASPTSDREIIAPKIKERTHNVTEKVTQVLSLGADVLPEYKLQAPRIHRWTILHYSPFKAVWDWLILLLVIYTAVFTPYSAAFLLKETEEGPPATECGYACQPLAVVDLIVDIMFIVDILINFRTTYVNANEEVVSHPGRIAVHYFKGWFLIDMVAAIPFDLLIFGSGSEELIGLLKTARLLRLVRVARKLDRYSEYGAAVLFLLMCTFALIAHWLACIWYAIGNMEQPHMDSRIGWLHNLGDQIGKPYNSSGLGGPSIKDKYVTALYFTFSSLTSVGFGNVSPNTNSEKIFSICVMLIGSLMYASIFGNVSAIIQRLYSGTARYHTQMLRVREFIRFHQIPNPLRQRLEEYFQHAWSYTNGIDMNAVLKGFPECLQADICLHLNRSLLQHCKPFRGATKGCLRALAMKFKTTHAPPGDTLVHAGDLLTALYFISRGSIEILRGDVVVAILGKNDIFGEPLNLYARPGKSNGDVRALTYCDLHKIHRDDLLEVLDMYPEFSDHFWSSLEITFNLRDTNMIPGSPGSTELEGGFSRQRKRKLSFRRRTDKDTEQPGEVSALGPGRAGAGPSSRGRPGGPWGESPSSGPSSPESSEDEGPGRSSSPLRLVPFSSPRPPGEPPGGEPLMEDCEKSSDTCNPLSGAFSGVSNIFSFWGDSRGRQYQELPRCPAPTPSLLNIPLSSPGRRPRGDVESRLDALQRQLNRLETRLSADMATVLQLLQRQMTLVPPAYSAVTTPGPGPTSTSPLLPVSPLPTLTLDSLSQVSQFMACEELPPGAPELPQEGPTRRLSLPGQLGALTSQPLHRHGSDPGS

| Structure (SMILES) | hERG current change (%, negative = inhibition) at 1uM [%] |
| --- | --- |
| CCCc1ccc(Oc2c(-c3ccc(O)c(C)c3O)n[nH]c2C)cc1 | -9.65 |
| Cc1ccc(N2CC(NC(=O)C(=O)c3c[nH]c4ccccc34)CC2=O)cc1C (centres unmarked) | 4.06 |
| Cc1cc(F)ccc1S(=O)(=O)N1CCCOC1CNC(=O)C(=O)NCCN1CCOCC1 (centres unmarked) | 14.7 |
| CN(C)S(=O)(=O)N1CCN(c2ccccc2Cl)CC1 | -0.48 |
| O=c1c(-c2ccco2)[n+]([O-])c2ccccc2n1OCc1ccccc1[N+](=O)[O-] | -4.87 |
| Cc1nc2c(=O)[nH]c3ccccc3c2o1 | 4.63 |
| CCOC(=O)C1=C(C)OC(N)=C(C#N)C1c1cc2c(cc1[N+](=O)[O-])OCO2 (centres unmarked) | 2.27 |
| CC(=O)Oc1ccc(C(=O)[C@H]2[C@H]3C(=O)N(c4ccc5ccccc5c4)C(=O)[C@H]3[C@@H]3C=CC=NN32)cc1 | 3.38 |
| Cc1ccc(CN2CC(C(=O)Nc3ccc(F)c([N+](=O)[O-])c3)CC2=O)cc1 (centres unmarked) | -1.97 |
| c1ccc(CSc2ccc(-c3ccco3)nn2)cc1 | 4.81 |
| Cc1ccc(/C=N/Nc2cc(C)nc(N3CCOCC3)n2)cc1 | 13.8 |
| COc1cccc(C2=NOC(C(=O)N3CCN(c4ccccc4)CC3)C2)c1OC (centres unmarked) | 12.5 |
| Cc1ccc(CSc2nnc(CCCCCNC(=O)OC(C)(C)C)o2)cc1 | 6.41 |
| CCn1c(=O)cc(OCC(=O)N2CCN(C(=O)c3ccco3)CC2)c2ccccc21 | 7.73 |
| COc1cc(NC(=O)CCn2c(=O)oc3ccccc32)cc(OC)c1OC | 17.7 |
| Cc1ccc(C2CC(=O)C(C=NCCN3CCN(C(=S)Nc4ccccc4)CC3)=C(O)C2)cc1 (centres unmarked) | -0.928 |
| C/C(=N\NC(=O)NC1CCCCC1)c1ccco1 | -5.2 |
| O=C(CCc1c[nH]c2ccccc12)NCCc1ccc(Cl)cc1 | 11.9 |
| Cc1ccc(NC(=O)Cc2nc(-c3c[nH]c(C(=O)N4CCCC4)c3)cs2)c(C)c1 | 2.05 |
| CCOc1ccc(CNC(=O)CCCn2nc(C)c3c(C)n(-c4ccc(C)cc4)nc3c2=O)cc1 | 15.2 |
| COc1ccc2[nH]c(C)c(CCN(Cc3cccs3)C(=S)Nc3cccc(F)c3)c2c1 | 10.6 |
| O=[N+]([O-])c1ccc(N2CCCCCC2)c2nonc12 | 6.54 |

| Structure (SMILES) | hERG current change (%, negative = inhibition) at 1uM [%] |
| --- | --- |
| CC1CC(C)(C)NC(=S)N1CCCC(=O)NCc1ccccc1 (centres unmarked) | 11.7 |
| Cc1cccc(C)c1NC(=O)CCS(=O)(=O)c1cccc2nsnc12 | -1.88 |
| CCCCc1ccc(N/C(N)=N/c2nc(C)cc(C)n2)cc1 | -34 |
| COc1ccc(NC(=O)CSc2nc3ccsc3c(=O)n2Cc2ccccn2)c(OC)c1 | -2.79 |
| Clc1ccccc1-c1ncnc2ccc(Br)cc12 | 6.1 |
| O=C(c1ccccc1)c1cnc[nH]1 | 1.57 |
| COc1ccc(OC)c(S(=O)(=O)NCC(c2ccc(F)cc2)N2CCN(C)CC2)c1 (centres unmarked) | -1.39 |
| CCCC(=O)Oc1ccc(-c2nccc(C(OC)OC)n2)cc1 | 11.5 |
| CCOC(=O)c1sc(NC(=O)CSc2nnc(Cc3ccccc3)o2)c(C#N)c1C | 11.8 |
| O=C(Nc1ccc2nc3n(c(=O)c2c1)CCCC3)c1cc([N+](=O)[O-])ccc1F | 0.255 |
| COc1ccc(-n2nnnc2/C(=C/N(C)C)C(=O)c2ccccc2)cc1 | 9.22 |
| Cc1ccccc1C(=O)N1CCN=C1SCc1ccc([N+](=O)[O-])cc1 | -8.79 |
| CN1C(=O)c2ccccc2C(C(=O)NCC2CCCO2)C1c1c[nH]c2ccccc12 (centres unmarked) | 7.98 |
| CCc1ccc2[nH]c(C(=O)N(C)c3ccc(F)cc3F)cc2c1 | 9.61 |
| Cn1c(=O)[nH]c(=O)c2c1nc(CN1CCN(c3cccc(Cl)c3)CC1)n2CCN1CCOCC1 | -10.8 |
| Clc1ccc(-c2nnc3n2CCCS3)cc1 | 8.12 |
| O=C(Nc1nc2ccccc2s1)C1CCN(S(=O)(=O)c2cc([N+](=O)[O-])ccc2Cl)CC1 | 10.5 |
| O=C(Cc1csc(NC(=O)Nc2ccc(Cl)cc2)n1)NCc1cccnc1 | -1.57 |
| CC(=O)Nc1ccc(S(=O)(=O)Nc2nc3nc(-c4ccccc4)cc(-c4ccccc4)n3n2)cc1 | 17.1 |
| Cc1ccc(OC(C)C(=O)Nc2ccc(C)c(S(=O)(=O)Nc3ccc(C)cc3C)c2)cc1 (centres unmarked) | 9.81 |
| CS(=O)(=O)N(CC(=O)Nc1ccccc1-c1ccccc1)c1ccc(F)cc1 | 12.2 |
| Cc1c(NC(=O)c2ccc(C(=O)Nc3c(C)n(C)n(-c4ccccc4)c3=O)cc2)c(=O)n(-c2ccccc2)n1C | 14.9 |

| Structure (SMILES) | hERG current change (%, negative = inhibition) at 1uM [%] |
| --- | --- |
| CC1=C(C(=O)OCC2CCCO2)C(c2coc3ccc(C)cc3c2=O)C2=C(CCCC2=O)N1 (centres unmarked) | 3.86 |
| Cc1ccccc1CC(=O)N1CCCC(CNC(=O)c2ccc(F)cc2)C1 (centres unmarked) | 11.4 |
| Cc1cc(Br)cc2c(C(=O)NCC3CCCO3)cc(-c3ccccc3)nc12 (centres unmarked) | 12 |
| COC(=O)c1ccc(OCC(O)CN2CCC(C)CC2)cc1 (centres unmarked) | -8.12 |
| CC(C)C(=O)Nc1ccc2c(c1)nc(CCN1CCN(c3ccccn3)CC1)n2C | 6.24 |
| Cl.c1ccc(CCn2nnnc2CN2CCN(C3CCCC3)CC2)cc1 | 2.67 |
| COc1ccc(CCNCc2ccncc2)cc1OC | 14 |
| Cc1ccc(C(=O)OCN2C(=O)c3ccccc3C2=O)o1 | 14.2 |
| Cc1ccc(CNC(=O)COc2ccc(S(=O)(=O)N3CCOCC3)cc2)cc1 | 16.5 |
| CC1(C)CC2(CCO1)OC(=O)CC2C(=O)NCc1ccccc1 (centres unmarked) | -2.59 |
| COc1ccccc1CN1CC(C(=O)NCc2cc(C(C)C)no2)CCC1=O (centres unmarked) | 19.2 |
| CCOP(=O)(CC(C(C)=O)C(O)c1ccccc1)OCC (centres unmarked) | 17.8 |
| COc1ccc(NC(=O)CSc2nccn2Cc2ccco2)cc1 | 14.6 |
| COc1ccc(NC(=O)c2cccs2)cc1O | -2.58 |
| COCCNC(=S)Nc1ccc2nc(N3CCN(C)CC3)cc(C)c2c1 | 9.02 |
| COc1ccc(Cn2c(-c3ccc(C)cc3)c[n+]3ccccc23)cc1.[Br-] | -5.72 |
| CCOC(=O)C1(Cc2cccc(Cl)c2)CCCN(C2CCN(C(C)=O)CC2)C1 (centres unmarked) | 16.4 |
| Cc1ccc2nc(-c3ccncc3)cc(-c3ccccc3)c2c1 | 2.64 |
| Nc1cc(C2CCCC2)nn1-c1ccccc1 | -0.284 |
| O=C(Nc1nnc(C2=COCCO2)o1)c1cccc(Br)c1 | 14.1 |
| COc1ccccc1N=C1SCC(=O)N1Cc1ccco1 | 12 |
| CCOC(=O)CSc1n[nH]c(NC(C)=O)n1 | 6.3 |

| Structure (SMILES) | hERG current change (%, negative = inhibition) at 1uM [%] |
| --- | --- |
| Cc1ccc2nc(Cl)c3cc(C(=O)NCCCN4CCCC4)sc3c2c1 | 10.5 |
| O=S(=O)(N[C@H]1C[C@@H](NS(=O)(=O)OCC(Cl)(Cl)Cl)C2CCCCC21)OCC(Cl)(Cl)Cl (some centres unmarked) | 8.67 |
| CN(C1CCCCC1)S(=O)(=O)c1ccc(NC(=O)Cn2nc(-c3ccc(F)cc3)ccc2=O)cc1 | 3.99 |
| Cc1ccc(C(=O)/C=C/Nc2cccc(O)c2)cc1 | 6.34 |
| COC(=O)c1ccc(CNS(=O)(=O)c2ccc3ccccc3c2)cc1 | 14.9 |
| Cc1cc(C)c2cc3c(N)c(C(=O)N4CCOCC4)sc3nc2c1 | 13.7 |
| O=C(Oc1ccc(/C=N/NC(=O)c2ccco2)cc1)c1ccccc1 | 6.17 |
| O=C(NNC(=O)c1ccccc1OCc1ccccc1)c1ccccc1O | 17.9 |
| CC(=O)N(c1ccc(N(C(C)=O)S(=O)(=O)c2ccccc2)cc1)S(=O)(=O)c1ccccc1 | 9.52 |
| COc1ccc(N=Cc2c[nH][nH]c2=O)cc1 | 12.6 |
| O=[N+]([O-])c1cc(-c2ccc(/C=N/c3nc4ccccn4c3-c3ccco3)o2)ccc1Cl | 3.5 |
| CC(C)(C)C(=O)N1CCN(c2ccc(NC(=O)c3ccco3)cc2)CC1 | 12.4 |
| CSc1nnc(C2CCN(CC(=O)Nc3ccccc3N3CCOCC3)CC2)n1C | -10.2 |
| O=[N+]([O-])c1cc(/C=N\Nc2nc(-c3ccccc3)cs2)ccc1O | 12.5 |
| Cc1ccc(N2C(=O)NC(=O)/C(=C\c3ccc(N4CCOCC4)cc3)C2=O)cc1 | 8.44 |
| O=S(=O)(NCCO)c1cccc2cccnc12 | 3.85 |
| CN(Cc1ccccc1)C(=O)CNC(=O)Cn1cnc2ccccc2c1=O | 0.746 |
| C[C@H](NC(=O)c1nc[nH]c1C(=O)N1CCc2ccccc2C1)c1ccccc1 | 8.52 |
| O=C(OCC(=O)N1CCCc2ccccc21)c1cnc(Cl)c(Cl)c1 | -5.84 |
| CCOc1ccccc1NS(=O)(=O)c1c(C)noc1C | -6.57 |
